{"source": "PubChem BioAssay AID662", "about": "(National Center for Advancing Translational Sciences (NCATS), 2007)", "note": "Screen size: about 71,000 compounds; about 1,800 (2.5%) were called active. Inconclusive means that the source gave no clear call. Such entries were picked first, then a sample of the others. Calls follow the shape of the dose curve; as a rule, active = well fitted activation curve with a large enough effect in the signal ratio, with a control signal flat (not every such curve was filed as active); inconclusive = small, poorly fitted or top-dose-only effect, or effect the other way, or a change in a side signal; inactive = flat fitted curve, though single readings scatter; the % refers to the signal ratio. Potencies beside an inconclusive call are fits to weak or partial responses and may not hold up. Potency is read from the fitted curve at half-maximal effect; tags tell the direction and shape of the fitted curve.", "data": [{"experiment": "Cell signaling CRE-BLA (Fsk stim); as to activity change, negative = inhibition: % of control where 0% means no effect", "conditions": "CHO CRE-bla reporter (cAMP response element driving beta-lactamase), forskolin EC10, beta-lactamase ratio; activity change, negative = inhibition: at 38.2 µM (top of the series) unless noted", "summary_of_the_method": "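CRE-bla CHO reporter cells treated with compound titration plus EC10 NKH 477 (water-soluble forskolin), incubated 3 h at 37 °C; CCF4 loading 2 h at room temperature, 460/530 nm emission ratio read, AC50 values derived for positive or negative modulators.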", "values": [{"smiles": "O=C(O)CCc1nc2cccnc2n1Cc1ccccc1", "activity change, negative = inhibition": "inconclusive: 26.5%"}, {"smiles": "CCOC(=O)C(C)Oc1cccc2c(=O)n(CC(=O)Nc3ccc4c(c3)OCCO4)ccc12", "note": "(stereo not drawn)", "Potency": "active: 10 µM"}, {"smiles": "COc1ccc(NC(=O)c2oc3ccccc3c2NC(=O)COc2ccccc2OC)c(OC)c1", "activity change, negative = inhibition": "inactive: 3.54%"}, {"smiles": "Cc1cc(N2CCC(C)CC2)n2ncc(-c3ccccc3)c2n1", "Potency": "inconclusive: 5.01 µM [rising, partial curve]"}, {"smiles": "O=C(NCC1CCCO1)C1CC(c2ccc(Cl)c(Cl)c2)=NO1", "note": "(stereo not drawn)", "activity change, negative = inhibition": "inactive: 1.47%"}, {"smiles": "Cc1cc(NC(=O)CSc2nc3sc4c(c3c(=O)n2C)CCCC4)no1", "activity change, negative = inhibition": "inactive: -1.18%"}, {"smiles": "Fc1ccc(CSc2ncnc3nc[nH]c23)cc1", "Potency": "inconclusive: 10 µM [rising, partial curve]"}, {"smiles": "N#CC1=C(N)Oc2n[nH]c(-c3ccccc3)c2C12C(=O)Nc1ccccc12", "note": "(stereo not drawn)", "activity change, negative = inhibition": "inactive: -2.6%"}, {"smiles": "CC(C)(C)c1cc(=O)n2c(C#N)c(C#N)nc2[nH]1", "activity change, negative = inhibition": "inconclusive: -8.89%"}, {"smiles": "CCOC(=O)N1CCN(C(=O)CCCn2c(=S)[nH]c3ccccc3c2=O)CC1", "activity change, negative = inhibition": "inactive: 10.4%"}, {"smiles": "COc1ccc(-c2cn3ccccc3n2)cc1OC", "Potency": "inconclusive: 20 µM [rising, single point]"}, {"smiles": "O=C(O)c1nn(-c2ccc(Cl)cc2)c2c1C(=O)c1ccccc1C2=O", "Potency": "inconclusive: 1 µM [rising, single point]"}, {"smiles": "Cc1cc(C(=O)Nc2c(C)n(C)n(-c3ccccc3)c2=O)cs1", "activity change, negative = inhibition": "inconclusive: -17%"}, {"smiles": "COc1ccc2c(c1)N(C)C(=O)CC(c1ccccc1)=N2", "activity change, negative = inhibition": "inconclusive: -15.3%"}, {"smiles": "COc1ccc(CCC(=O)c2c(O)cc(O[C@@H]3O[C@H](CO)[C@@H](O)[C@H](O)[C@H]3O[C@@H]3O[C@@H](C)[C@H](O)[C@@H](O)[C@H]3O)cc2O)cc1O", "activity change, negative = inhibition": "inactive: -3.87%"}, {"smiles": "CCc1nnc(SCc2ccc(OC)c(Br)c2)n1N", "activity change, negative = inhibition": "inconclusive: 5.8% [at 7.6 µM]"}, {"smiles": "Cc1ccc(CNC(=O)C2CNc3cc(C)ccc3O2)cc1", "note": "(stereo not drawn)", "activity change, negative = inhibition": "inactive: -3.33%"}, {"smiles": "CC#CCN(CC#CC)S(=O)(=O)c1ccc(-n2cnnn2)c(OC)c1", "activity change, negative = inhibition": "inactive: 4.65%"}, {"smiles": "Cc1cc(C)cc(N2C(=O)C3CC=CCC3C2=O)c1", "note": "(stereo not drawn)", "activity change, negative = inhibition": "inconclusive: -11.2%"}, {"smiles": "COC(=O)c1ccc(Oc2nc(N3CCCCC3)nc(N3CCOCC3)n2)cc1", "Potency": "inconclusive: 1.58 µM [rising, full curve, poor fit]"}, {"smiles": "COc1ncnc2sc(-c3ccccc3)cc12", "activity change, negative = inhibition": "inconclusive: 26.5%"}, {"smiles": "CCN1CCN(C(=O)c2cc3cc4cc(OC)ccc4nc3s2)CC1", "Potency": "inconclusive: 12.6 µM [rising, partial curve, poor fit]"}, {"smiles": "O=C(CC1SC2=NCCN2C1=O)Nc1ccc(Cl)cc1", "note": "(stereo not drawn)", "activity change, negative = inhibition": "inconclusive: -14.6%"}]}]}
